Results taken from the supplement of paper PMC11876631.
± gives the standard deviation of the averaged measurements. Laboratory Escherichia coli strains with one amino-acid change in an essential protein, pooled on minimal glucose agar with carbenicillin or gentamicin at twice the control MIC (plus kanamycin and chloramphenicol for the plasmids), 48 h. Fold change of barcode share against drug-free plates; higher = less susceptible. Active = above 20 in both replicates (the paper's putatively resistant). '<' = one read or none on drug, '>' = one read or none on a drug-free plate. Shares are relative, so most strains fall below 1 when a few take over. Listed are strains with at least 15 reads on both drug-free plates, and hits; most hits rest on fewer reference reads. Replicate rank correlation about 0.5. Edits are read from barcodes.

Target: Escherichia coli (laboratory strain)
Experiment: barcode share on antibiotic plates over drug-free plates; higher = less susceptible
Protocol: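 A pool of E. coli strains, each edited to carry one amino-acid change in an essential protein, was grown for 48 h on minimal glucose agar with or without antibiotic; strain barcodes were sequenced; mean of two replicates.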

[1] = antibiotic: carbenicillin, 2× MIC (3.1 µg/mL)
[2] = antibiotic: gentamicin, 2× MIC (MIC 0.45 µg/mL)

Protein	fold change of barcode share [1]	fold change of barcode share [2]
cysB L161Q (protein) MKLQQLRYIVEVVNHNLNVSSTAEGLYTSQPGISKQVRMLEDELGIQIFSRSGKHLTQVTPAGQEIIRIAREVLSKVDAIKSVAGEHTWPDKGSLYIATTHTQARYALPNVIKGFIERYPRVSLHMHQGSPTQIADAVSKGNADFAIATEALHLYEDLVMQPCYHWNRAIVVTPDHPLAGKKAITIEELAQYPLVTYTFGFTGRSELDTAFNRAGLTPRIVFTATDADVIKTYVRLGLGVGVIASMAVDPVADPDLVRVDAHDIFSHSTTKIGFRRSTFLRSYMYDFIQRFAPHLTRDVVDAAVALRSNEEIEVMFKDIKLPEK	0.856 ± 0.41	0.0948 ± 0.096
cysB V172W (protein) MKLQQLRYIVEVVNHNLNVSSTAEGLYTSQPGISKQVRMLEDELGIQIFSRSGKHLTQVTPAGQEIIRIAREVLSKVDAIKSVAGEHTWPDKGSLYIATTHTQARYALPNVIKGFIERYPRVSLHMHQGSPTQIADAVSKGNADFAIATEALHLYEDLVMLPCYHWNRAIVWTPDHPLAGKKAITIEELAQYPLVTYTFGFTGRSELDTAFNRAGLTPRIVFTATDADVIKTYVRLGLGVGVIASMAVDPVADPDLVRVDAHDIFSHSTTKIGFRRSTFLRSYMYDFIQRFAPHLTRDVVDAAVALRSNEEIEVMFKDIKLPEK	0.454 ± 0.49	< 0.0124
cysB V221A (protein) MKLQQLRYIVEVVNHNLNVSSTAEGLYTSQPGISKQVRMLEDELGIQIFSRSGKHLTQVTPAGQEIIRIAREVLSKVDAIKSVAGEHTWPDKGSLYIATTHTQARYALPNVIKGFIERYPRVSLHMHQGSPTQIADAVSKGNADFAIATEALHLYEDLVMLPCYHWNRAIVVTPDHPLAGKKAITIEELAQYPLVTYTFGFTGRSELDTAFNRAGLTPRIAFTATDADVIKTYVRLGLGVGVIASMAVDPVADPDLVRVDAHDIFSHSTTKIGFRRSTFLRSYMYDFIQRFAPHLTRDVVDAAVALRSNEEIEVMFKDIKLPEK	0.517 ± 0.11	0.01493 ± 7.1e-05
accA I116W (protein) MSLNFLDFEQPIAELEAKIDSLTAVSRQDEKLDINIDEEVHRLREKSVELTRKIFADLGAWQIAQLARHPQRPYTLDYVRLAFDEFDELAGDRAYADDKAIVGGIARLDGRPVMIWGHQKGRETKEKIRRNFGMPAPEGYRKALRLMQMAERFKMPIITFIDTPGAYPGVGAEERGQSEAIARNLREMSRLGVPVVCTVIGEGGSGGALAIGVGDKVNMLQYSTYSVISPEGCASILWKSADKAPLAAEAMGIIAPRLKELKLIDSIIPEPLGGAHRNPEAMAASLKAQLLADLADLDVLSTEDLKNRRYQRLMSYGYA	0.555 ± 0.22	< 0.00868
coaD V32A (protein) MQKRAIYPGTFDPITNGHIDIVTRATQMFDHAILAIAASPSKKPMFTLEERVALAQQATAHLGNVEVVGFSDLMANFARNQHATVLIRGLRAVADFEYEMQLAHMNRHLMPELESVFLMPSKEWSFISSSLVKEVARHQGDVTHFLPENVHQALMAKLA	0.225 ± 0.11	< 0.0206
coaD V32W (protein) MQKRAIYPGTFDPITNGHIDIVTRATQMFDHWILAIAASPSKKPMFTLEERVALAQQATAHLGNVEVVGFSDLMANFARNQHATVLIRGLRAVADFEYEMQLAHMNRHLMPELESVFLMPSKEWSFISSSLVKEVARHQGDVTHFLPENVHQALMAKLA	0.238 ± 0.12	< 0.00969
coaD V32Q (protein) MQKRAIYPGTFDPITNGHIDIVTRATQMFDHQILAIAASPSKKPMFTLEERVALAQQATAHLGNVEVVGFSDLMANFARNQHATVLIRGLRAVADFEYEMQLAHMNRHLMPELESVFLMPSKEWSFISSSLVKEVARHQGDVTHFLPENVHQALMAKLA	0.201 ± 0.0084	< 0.0167
coaD V32D (protein) MQKRAIYPGTFDPITNGHIDIVTRATQMFDHDILAIAASPSKKPMFTLEERVALAQQATAHLGNVEVVGFSDLMANFARNQHATVLIRGLRAVADFEYEMQLAHMNRHLMPELESVFLMPSKEWSFISSSLVKEVARHQGDVTHFLPENVHQALMAKLA	0.298 ± 0.031	0.0165 ± 0.011
